Consider 40 molecules from the antibiotic and cytotoxicity screens of Wong et al. (2023).

SMILES strings stand for the structures. This is one part of the list.

In this experiment the test system is HepG2. The experiment can be described thus: cytotoxicity call (relative viability < 0.9). The following applies: 10 µM.
Regarding `Cn1cnc(S(=O)(=O)N2C[C@H](O)COC[C@@H]3O[C@@H](CC(=O)N4CCN(c5ccccc5)CC4)CC[C@H]32)c1`, the cytotoxicity call was “inactive”.

For `C[C@H](CO)N1C[C@H](C)[C@H](CN(C)C(=O)NC2CCCCC2)Oc2ccc(NC(=O)Cn3cnnn3)cc2C1=O`, the cytotoxicity call is “inactive”.

`COCC#Cc1cnc2c(c1)C(=O)N([C@@H](C)CO)C[C@@H](C)[C@@H](CN(C)S(=O)(=O)c1cccc(OC)c1)O2`: the cytotoxicity call is “inactive”.

As for `C[C@@H]1CN([C@H](C)CO)C(=O)c2cc(NC(=O)CCCN(C)C)ccc2O[C@@H]1CN(C)C(=O)Nc1ccc(F)cc1`, the cytotoxicity call was “inactive”.

On to `CO[C@H]1CN(C)C(=O)c2ccc(NS(C)(=O)=O)cc2OC[C@@H](C)N(C(=O)CN(C)C)C[C@H]1C`, for which the cytotoxicity call was “inactive”.

Consider `Cn1c(=O)n2n(c1=O)[C@H](C1CC1)C=C1CN3[C@@H]([C@H](Cc4ccccc4)OC(=O)[C@@H]3COC(=O)NCCCCCC(=O)NO)[C@@H]12`, for which the cytotoxicity call is “inactive”.

Regarding `O=P(O)(O)C(O)(Cn1ccnc1)P(=O)(O)O`, the cytotoxicity call is “inactive”.

As for `COc1ccc(NC(=O)Nc2ccc3c(c2)C(=O)N([C@H](C)CO)C[C@@H](C)[C@@H](CN(C)Cc2ccc(Cl)c(Cl)c2)OCCCC[C@H](C)O3)cc1`, the cytotoxicity call was “inactive”.

Consider `C[C@@H]1CN([C@@H](C)CO)C(=O)Cc2cc(NS(=O)(=O)c3ccc(F)cc3)ccc2O[C@H]1CN(C)S(=O)(=O)c1cccs1`, for which the cytotoxicity call is “inactive”.

Take `C[C@@H]1CN([C@@H](C)CO)C(=O)c2cc(NS(=O)(=O)c3ccc(F)cc3)ccc2O[C@@H](C)CCCCO[C@H]1CN(C)Cc1ccccc1`: the cytotoxicity call was “inactive”.

Consider `C[C@H](CO)N1C[C@H](C)[C@@H](CN(C)Cc2ccc(C(=O)Nc3ccccc3N)cc2)Oc2c(NC(=O)Nc3ccc(C(F)(F)F)cc3)cccc2C1=O`, for which the cytotoxicity call is “inactive”.

As for `C[C@@H]1CN([C@H](C)CO)C(=O)c2cc(NC(=O)Cc3ccccc3)ccc2O[C@@H]1CN(C)C(=O)Nc1ccc(C(F)(F)F)cc1`, the cytotoxicity call is “inactive”.

As to `Cc1noc(C)c1NC(=O)Nc1ccc2c(c1)C(=O)N([C@@H](C)CO)C[C@H](C)[C@H](CN(C)C(=O)C1CCCCC1)OCCCC[C@@H](C)O2`, the cytotoxicity call was “inactive”.

For `C[C@@H]1CN([C@@H](C)CO)S(=O)(=O)c2ccc(C#CCN(C)C)cc2O[C@H]1CN(C)Cc1ccc2c(c1)OCO2`, the cytotoxicity call was “inactive”.

Consider `COc1ccccc1S(=O)(=O)N(C)C[C@H]1Oc2cc(C#CCC(C)C)ccc2S(=O)(=O)N([C@@H](C)CO)C[C@H]1C`, for which the cytotoxicity call was “active”.

Regarding `Cc1ccc(S(=O)(=O)Nc2cccc3c2O[C@@H](CN(C)S(=O)(=O)c2cn(C)cn2)[C@H](C)CN([C@@H](C)CO)C3=O)cc1`, the cytotoxicity call was “inactive”.

On to `C[C@@H]1CN([C@H](C)CO)C(=O)c2cc(NC(=O)Nc3ccc(F)cc3)ccc2O[C@@H](C)CCCCO[C@@H]1CN(C)C(=O)c1ccccc1`, for which the cytotoxicity call is “inactive”.

In the case of `C[C@H](CO)N1C[C@H](C)[C@@H](CN(C)Cc2ccc(C(=O)Nc3ccccc3N)cc2)Oc2ccc(NC(=O)CCN3CCOCC3)cc2CC1=O`, the cytotoxicity call was “inactive”.

As to `O=C(CCCCCCC(=O)N/N=C/[C@@H](O)[C@H](O)[C@H](O)CO)NO`, the cytotoxicity call is “inactive”.

As to `CS(=O)(=O)CCNCc1ccc(-c2ccc3ncnc(Nc4ccc(OCc5cccc(F)c5)c(Cl)c4)c3c2)o1`, the cytotoxicity call is “active”.

Regarding `COc1ccc(S(=O)(=O)Nc2ccc3c(c2)C(=O)N([C@@H](C)CO)C[C@H](C)[C@H](CN(C)S(=O)(=O)c2cn(C)cn2)OCCCC[C@@H](C)O3)cc1`, the cytotoxicity call is “inactive”.

As to `C[C@@H]1CN([C@H](C)CO)C(=O)Cc2cc(NC(=O)NC3CCCCC3)ccc2O[C@@H]1CN(C)Cc1ccc(Cl)c(Cl)c1`, the cytotoxicity call was “active”.

For `COc1ccc(S(=O)(=O)N(C)C[C@@H]2Oc3c(NS(=O)(=O)c4ccc(F)cc4)cccc3C(=O)N([C@@H](C)CO)C[C@H]2C)cc1`, the cytotoxicity call is “inactive”.

With `C[C@H](CO)N1C[C@H](C)[C@@H](CN(C)Cc2ccc(Cl)c(Cl)c2)Oc2ccc(NC(=O)Nc3ccccc3)cc2C1=O`, the cytotoxicity call was “inactive”.

Take `NNC(=O)c1cccc(Cn2cccn2)c1`: the cytotoxicity call is “inactive”.

Consider `CC(C)(C)[S@@](=O)N1Cc2cc(C(=O)N3CCc4ccccc4C3)nc(-c3cccc(-c4ccncc4)c3)c2[C@H]1CCO`, for which the cytotoxicity call was “inactive”.

On to `C[C@@H]1CN([C@H](C)CO)C(=O)c2c(c3ccccc3n2C)-c2ccccc2CO[C@@H]1CN(C)C(=O)N[C@H](C)c1ccccc1`, for which the cytotoxicity call is “inactive”.

Regarding `C[C@@H]1CCCCO[C@@H](CN(C)Cc2ccc(C(=O)O)cc2)[C@H](C)CN([C@@H](C)CO)C(=O)c2cc(NC(=O)Nc3ccc(C(F)(F)F)cc3)ccc2O1`, the cytotoxicity call is “inactive”.

Turning to `C[C@H]1CN([C@@H](C)CO)C(=O)c2cc(Br)cnc2O[C@H]1CN(C)S(=O)(=O)c1ccc(F)cc1`, the cytotoxicity call was “inactive”.

In the case of `C[C@@H]1CN([C@H](C)CO)C(=O)c2cc(NS(=O)(=O)c3ccc(Cl)cc3)ccc2O[C@H]1CN(C)S(=O)(=O)c1cn(C)cn1`, the cytotoxicity call is “inactive”.

As to `O=C(CN1CCC2(CC1)OCCC[C@@H]2O)N1CCOCC1`, the cytotoxicity call was “inactive”.

In the case of `Cc1noc(C)c1S(=O)(=O)Nc1ccc2c(c1)CC(=O)N([C@@H](C)CO)C[C@@H](C)[C@H](CN(C)Cc1ccncc1)O2`, the cytotoxicity call is “inactive”.

Turning to `C=C1c2cccc(O)c2C(=O)C2=C(O)C3(O)C(=O)C(C(N)=O)=C(O)C(N(C)C)C3C(O)C12.Cl` (stereo not given), the cytotoxicity call was “inactive”.

As to `COc1ccc(S(=O)(=O)Nc2ccc3c(c2)CC(=O)N([C@@H](C)CO)C[C@@H](C)[C@H](CN(C)S(=O)(=O)c2ccc(F)cc2)O3)cc1`, the cytotoxicity call is “inactive”.

Consider `Cc1ccc(S(=O)(=O)N(C)C[C@@H]2OCCCC[C@H](C)Oc3ccc(NC(=O)NC4CCCCC4)cc3C(=O)N([C@H](C)CO)C[C@@H]2C)cc1`, for which the cytotoxicity call was “inactive”.

On to `c1cnc2c(SCc3nc4ccccc4s3)cccc2c1`, for which the cytotoxicity call was “active”.

Consider `C[C@@H]1CCCCO[C@@H](CN(C)Cc2ccncc2)[C@@H](C)CN([C@H](C)CO)C(=O)c2cc(NC(=O)CCC(F)(F)F)ccc2O1`, for which the cytotoxicity call is “inactive”.

Turning to `CC(=O)N1CCN(CC(=O)NS(=O)(=O)c2ccccc2)CC1`, the cytotoxicity call is “inactive”.

Regarding `C[C@H](CO)N1C[C@H](C)[C@H](CN(C)S(=O)(=O)c2cccs2)Oc2c(NC(=O)c3cnccn3)cccc2C1=O`, the cytotoxicity call is “inactive”.

Turning to `O=C1CCNC(=O)N1`, the cytotoxicity call was “inactive”.
